# Reference: PubChem BioAssay AID624296 (National Center for Advancing Translational Sciences (NCATS), 2012)
# About 9,900 (2.8%) of roughly 350,000 compounds were called active. The shares of active, inactive and inconclusive entries below differ from those in the screen. The call rests on the fitted dose curve; in most records, active means well fitted activation curve with a large enough effect; inconclusive means small, poorly fitted or top-dose-only effect; inactive means no such curve, though single readings can be large or run the other way. Potencies of inconclusive entries are left out as doubtful fits.
# Assay: A quantitative high throughput screen for small molecules that induce DNA re-replication in MCF 10a normal breast cells. Further: nearly all actives have a fitted effect of over 50% in size.
# Details: MCF 10A DNA re-replication, Hoechst nuclear intensity, 48 h; series mostly up to 46.1 µM
# Potency means the concentration at half of the fitted maximal effect; tags describe the fitted curve by direction and shape.
row,Structure (SMILES),Potency
1,COc1ccc(C(=O)NCCCc2ccccc2)cc1,"inconclusive [activator, partial curve]"
2,Cn1c(-c2ccc(F)cc2)cnc1NCc1ccccc1,"inconclusive [activator, partial curve, poor fit]"
3,O=C1C(=NO)C(c2ccccc2)Oc2ccccc21 (configuration not stated),"inconclusive [activator, full curve, poor fit]"
4,CCOC(=O)c1cccc(NC(=O)CCn2nc(C)c(S(=O)(=O)N3CCCCC3)c2C)c1,"inconclusive [activator, single point]"
5,CS(=O)(=O)N(CC(=O)NCc1ccc2c(c1)OCO2)Cc1ccccc1,"inconclusive [activator, single point]"
6,Cc1ccc(NC(=O)O/N=C/c2c(C)nn(C(C)(C)C)c2C)cc1Cl,"inconclusive [activator, partial curve, poor fit]"
7,CN(C(=O)c1ccc(NC(=O)Cc2ccc(NC(=O)C3CCCN(C(=O)C4CCC4)C3)cc2)cc1)C1CCCC1 (configuration not stated),"inconclusive [activator, single point]"
8,COC(=O)c1ccc(N2CCOCC2)c(NC(=O)Nc2cccc(OC)c2)c1,inactive
9,O=c1c2[nH]c3cccc(Cl)c3c2ncn1Cc1ccco1,"inconclusive [activator, partial curve, poor fit]"
10,CC(=O)c1cnc2c(-c3ccccc3)c(C)nn2c1C,"inconclusive [activator, partial curve, poor fit]"
11,CC(C)C[C@H](NC(=O)c1[nH]cnc1C(=O)N[C@@H](C)c1ccccc1)C(=O)OCc1ccccc1,"inconclusive [activator, partial curve, poor fit]"
12,O=C(/C=C/c1ccccc1)N1CCC[C@H]1CO,"inconclusive [activator, partial curve, poor fit]"
13,CCOC(=O)c1sc(Nc2nc3ccc(OC)cc3s2)cc1C,active: 18.4 µM
14,CCOC(=O)c1nnc(-c2cccs2)nc1Oc1ccc(Cl)cc1,"inconclusive [activator, single point]"
15,Cc1cc(NC(=O)c2cccc(S(=O)(=O)N(C)C)c2)n(-c2ccccn2)n1,"inconclusive [activator, partial curve, poor fit]"
16,O=C1C2C3C=CC(C4CC34)C2C(=O)N1CCCCN1CCN(c2ccc(F)cc2)CC1 (configuration not stated),"inconclusive [activator, single point]"
17,C=CCc1cccc(/C=N/NC(=O)c2ccccc2Br)c1O,"inconclusive [activator, single point]"
